Source: PubChem BioAssay AID588342 (National Center for Advancing Translational Sciences (NCATS), 2011)
Where “and” joins values, the source holds several entries; their conditions need not be identical. Equal entries are not always repeated. In all, about 360,000 compounds went through this assay and about 25,000 (6.9%) were called active. Inconclusive means that the source gave no clear call. Such entries were picked first, then a sample of the others. The call rests on the fitted dose curve; in most records, active means well fitted inhibition curve with a large enough effect; inconclusive means small, poorly fitted or top-dose-only effect; inactive means flat fitted curve, though single readings scatter. A potency beside an inconclusive call is a rough fit, not a confirmed value.

molecular target: Luciferin 4-monooxygenase (Photinus pyralis) (UniProt P08659); test: qHTS profiling assay for firefly luciferase inhibitor/activator using purifed enzyme and Km concentrations of substrates (counterscreen for miR-21 project); details: purified FLuc, luminescence inhibition; series mostly up to 57.5 µM; further: nearly all actives have a fitted effect of over 55% in size
In short: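 Purified P. pyralis luciferase (10nM final) with 10uM D-luciferin and 10uM ATP (Km levels) in 50mM Tris acetate pH 7.5, 10mM Mg acetate, 0.01% Tween-20, 0.05% BSA; qHTS 6-point titration, ~60 µM downward; luminescence read.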
Potency means the concentration at half of the fitted maximal effect; tags describe the fitted curve by direction and shape.

Sequence of UniProt P08659 (P08659 whole entry, looked up): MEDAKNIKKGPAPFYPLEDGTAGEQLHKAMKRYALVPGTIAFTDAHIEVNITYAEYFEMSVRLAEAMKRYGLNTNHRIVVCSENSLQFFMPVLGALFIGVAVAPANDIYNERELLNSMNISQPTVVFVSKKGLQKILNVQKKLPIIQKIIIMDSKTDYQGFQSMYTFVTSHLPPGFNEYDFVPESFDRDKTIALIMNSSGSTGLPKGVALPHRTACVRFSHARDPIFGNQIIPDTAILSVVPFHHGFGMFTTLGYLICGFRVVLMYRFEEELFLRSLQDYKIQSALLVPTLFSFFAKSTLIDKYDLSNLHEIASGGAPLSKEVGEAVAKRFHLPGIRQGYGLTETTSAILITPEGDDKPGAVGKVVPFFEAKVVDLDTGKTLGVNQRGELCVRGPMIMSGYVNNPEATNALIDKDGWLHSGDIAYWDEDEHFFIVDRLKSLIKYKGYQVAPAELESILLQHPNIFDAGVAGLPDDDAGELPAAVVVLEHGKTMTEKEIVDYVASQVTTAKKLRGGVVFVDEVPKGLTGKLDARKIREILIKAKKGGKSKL

| SMILES | Potency |
| --- | --- |
| COCCCNC(=O)Nc1ccc(Br)cc1Cl | inconclusive: 30.1 µM [inhibitor, partial curve, poor fit] |
| O=C(Nc1ccc(C(=O)N2CCN(c3ccccc3)CC2)cc1)c1nsc2ccccc12 | active: 5.36 µM |
| O=C(NCC(O)c1ccccc1)Nc1cccs1 (stereo unspecified) | inconclusive: 37.9 µM [inhibitor, partial curve, poor fit] |
| CCC(C(=O)NC(CC(=O)O)c1ccc(Cl)cc1)c1ccccc1 (stereo unspecified) | inactive |
| CCCN(CCC)CCNC(=O)C1CCN(c2nc3ccc(CC)cc3s2)CC1 | active: 21.3 µM |
| CC(C)Oc1ccc(C(=O)NC(=S)N2CCOCC2)cc1 | inconclusive: 23.9 µM [inhibitor, partial curve, poor fit] |
| S=c1nc[nH]c2c1sc1nc(N3CCOCC3)c3c(c12)CCCC3 | inconclusive: 23.9 µM [inhibitor, single point] |
| Cc1cccc(CCNC(=O)C2CCN(c3nc4ccccc4nc3C(F)(F)F)CC2)c1 | inactive |
| Cc1ccc(-n2ncc3c(NCC(C)C)ncnc32)c(C)c1 | inconclusive: 26.9 µM [inhibitor, partial curve] |
| COc1ccc(NCc2nnc(SCC(=O)Nc3cc(C)cc(C)c3)o2)cc1 | inconclusive: 33.8 µM [inhibitor, partial curve, poor fit] |
| O=C(Nc1nc(-c2ccccc2)cs1)Nc1ccc(F)cc1F | inconclusive: 37.9 µM [inhibitor, partial curve, poor fit] |
| Cc1ccc(C(=O)NCC(=O)N2CCCCCC2)cc1 | inconclusive: 37.9 µM [inhibitor, partial curve, poor fit] |
| C/C(=N\NC(=O)c1ccc(N(C)C)cc1)c1ccc(C)c(C)c1 | inconclusive: 21.3 µM [inhibitor, partial curve, poor fit] |
| CC1CCN(C(=O)c2ccc3c(Cl)c4c(nc3c2)CCCC4)CC1 | inconclusive: 19 µM [inhibitor, partial curve, poor fit] |
| COc1cccc(C2=NOC(C(=O)NCc3cccs3)C2)c1 (stereo unspecified) | inconclusive: 21.3 µM [inhibitor, partial curve, poor fit] |
| CCc1nc2ccccc2n1CC1CC1(Cl)Cl (stereo unspecified) | inactive |
| O=C(CC(=O)N1CCN(c2ccccn2)CC1)Nc1ccc2nc3n(c(=O)c2c1)CCCCC3 | inconclusive: 37.9 µM [inhibitor, single point] |
| Cc1ccc(C(=O)NC2CC(C)(C)NC(C)(C)C2)cc1S(=O)(=O)N1CCCCC1 | inactive |
| Cc1cc([N+](=O)[O-])nn1Cc1ccc(C(=O)N/N=C/c2ccccc2)cc1 | inconclusive: 23.9 µM [inhibitor, single point] |
| Cc1ccc(S(=O)(=O)NCCN2CCOCC2)s1 | inactive |
| O=C(NCCc1ccccc1)c1ccc(NCC2CCCO2)c([N+](=O)[O-])c1 (stereo unspecified) | inconclusive: 30.1 µM [inhibitor, partial curve, poor fit] |
| CCOc1ccccc1C(=O)N/N=C/c1cccc2cccnc12 | inconclusive: 37.9 µM [inhibitor, partial curve, poor fit] |
| CCOC(=O)c1oc2cccc(O)c2c1C | inconclusive: 21.3 µM [inhibitor, single point] |
| COc1ccc(-c2cc(=O)c3cc(O)ccc3o2)cc1 | active: 1.69 µM |

| SMILES | Potency |
| --- | --- |
| COc1ccc(/C(N)=N/OC(=O)CSc2ccccc2)cc1 | active: 4.78 µM |
| O=C(COc1ccc2ccccc2c1)Nc1ccccc1C(=O)O | active: 16.9 µM |
| Cc1ccc(Nc2ncnc3nc[nH]c23)cc1Cl | inconclusive: 5.36 µM [inhibitor, partial curve] |
| Cc1cccc(Nc2nc(-c3c(C)nc4ccccn34)cs2)c1 | inconclusive: 23.9 µM [inhibitor, partial curve, poor fit] |
| COc1cccc(CNC(=O)c2cccn2-c2nnc(N3CCCC3)s2)c1 | inactive |
| CCn1c(O)c(C=NC2CCCC2)sc1=S | inconclusive: 19 µM [inhibitor, partial curve, poor fit] |
| O=C(Cn1cc(SCc2ccc(F)cc2)c2ccccc21)N1CCOCC1 | inconclusive: 23.9 µM [inhibitor, partial curve, poor fit] |
| O=C(/C=C/c1ccc(Cl)cc1)N(Cc1cccs1)C1CCS(=O)(=O)C1 (stereo unspecified) | inactive |
| N#C/C(=C\c1ccccc1C(F)(F)F)C(=O)Nc1ccccc1F | inconclusive: 37.9 µM [inhibitor, single point] |
| CN1CCN(c2ccccc2NC(=O)c2ccc(-c3ccc(Cl)cc3Cl)o2)CC1 | inactive |
| COc1ccc2c(C)c(CCC(=O)NCc3ccc(OC)c(OC)c3)c(=O)oc2c1 | inactive |
| CN(C)/C=C1\N=C(c2ccccc2)OC1=O | inactive |
| COc1ccccc1-c1noc(-c2ccccc2C(=O)NCC2CCCO2)n1 (stereo unspecified) | active: 15.1 µM |
| O=C(N/C=C/c1ccco1)Nc1cccc(Cl)c1 | active: 26.9 µM |
| C=CCn1c(=O)c2ccccc2n2nnc(C(=O)OCC)c12 | inconclusive: 30.1 µM [inhibitor, partial curve, poor fit] |
| O=C(NC(=S)Nc1ccc(N2CCCCC2)c(Cl)c1)c1ccc2c(c1)OCCO2 | inconclusive: 8.49 µM [inhibitor, partial curve, poor fit] |
| O=C(CNC(=O)c1ccccc1F)NCC(c1cccs1)N1CCOCC1 (stereo unspecified) | inactive |
| CCOC(=O)c1scc(-c2ccc(C)cc2)c1S(=O)(=O)Nc1ccc(F)c(F)c1 | inconclusive: 16.9 µM [inhibitor, partial curve, poor fit] |
| Cn1c(=O)n(CCCc2ccccc2)c(=O)c2c1nc1n2CCN1c1ccccc1 | inconclusive: 10.7 µM [inhibitor, partial curve] |
| CCCNC(=O)OC[C@H]1O[C@H](CCO/N=C(\C)CCN2CCc3nc(-c4ccccc4)c(-c4ccccc4)cc3C2)C=C[C@@H]1Oc1ccc(OC)cc1 | inactive |
| CCOC(=O)c1ccc(NC(=O)CN2C(=O)CC(c3ccc(C)c(C)c3)=Nc3ccccc32)cc1 | inconclusive: 15.1 µM [inhibitor, partial curve] |
| C=CCn1c(NCc2ccc3c(c2)OCO3)nc2ccccc21 | active: 15.1 µM |
| COCCOC(=O)c1[nH]c2c(c1C)C(=O)C(C(=O)OC)C(C)C2 (stereo unspecified) | active: 9.53 µM |
| CCOc1ccccc1C1N(c2ccc(OC)cc2)C(=O)C2CCCN21 (stereo unspecified) | inconclusive: 21.3 µM [inhibitor, single point] |

| SMILES | Potency |
| --- | --- |
| Cc1cc(NC(=O)CN2C(=O)CSc3ccc(S(=O)(=O)N(C)C)cc32)ccc1Br | inactive |
| CN(C1=NS(=O)(=O)c2ccccc21)c1ccc(OC(=O)c2ccccc2)cc1 | inactive |
| Cc1ccc(NC(=S)NCCC2=CCCCC2)cc1 | inconclusive: 23.9 µM [inhibitor, partial curve] |
| Cc1nn(-c2ccccc2)c(N2CCCCC2)c1/C=N/NC(=O)c1ccncc1 | inactive |
| CC(C)c1nnc(NC(=O)c2nc(S(=O)(=O)Cc3ccccc3)ncc2Cl)s1 | inconclusive: 12 µM [inhibitor, partial curve] |
| COc1cccc(-c2ccnc3[nH]n(-c4ccccc4)c(=O)c23)c1 | inconclusive: 1.9 µM [inhibitor, partial curve, poor fit] and inconclusive: 2.69 µM [inhibitor, full curve] |
| COc1ccc(-c2coc3cc4oc(=O)c(CC(=O)O)c(C)c4cc23)cc1 | inconclusive: 26.9 µM [inhibitor, single point] |
| Cc1ccnc2ccc(-c3nc4ccccc4o3)cc12 | active: 5.36 µM |
| O=C1NC(=O)/C(=C/c2cccc3ccccc23)S1 | inconclusive: 21.3 µM [inhibitor, single point] |
| CN1c2ccccc2C(O)=C(C(=S)Nc2ccccc2)S1(=O)=O | inconclusive: 37.9 µM [inhibitor, partial curve, poor fit] |
| COc1ccc(/C=C/C(=O)NC(=S)Nc2ccc(S(=O)(=O)Nc3nccnc3OC)cc2)cc1 | inconclusive: 16.9 µM [inhibitor, partial curve] |
| COc1cccc(OC)c1Cn1nnc2c(=O)[nH]c(C3CCN(C(=O)c4ccccc4)CC3)nc21 | inactive |
| Cc1ccccc1CS(=O)(=O)c1nnc([C@H](Cc2ccccc2)NC(=O)OC(C)(C)C)o1 | inconclusive: 23.9 µM [inhibitor, partial curve, poor fit] |
| COc1cc(/C=N/N=C/c2c[nH]c(=O)c(C#N)c2Nc2ccccc2)ccc1O | inactive |
| O=C(O)c1ccc(N/N=C/C2=C(N3CCOCC3)C(=C\c3ccccc3)/CC2)cc1 | inconclusive: 30.1 µM [inhibitor, partial curve, poor fit] |
| COc1ccc(Nc2nc(C)nc3c2oc2ccccc23)cc1 | inconclusive: 23.9 µM [inhibitor, partial curve, poor fit] |
| Cc1nn(-c2ccccc2)c2sc(C(=O)N3CCOCC3)cc12 | active: 10.7 µM |
| CCC(=O)NCCc1nc2cc(NC(=O)c3ccccc3OC)ccc2n1C | active: 21.3 µM |
| O=C(Nc1cccc(C(F)(F)F)c1)C(SCCO)c1ccccc1 (stereo unspecified) | inactive |
| Cc1ccc(-c2noc(CSc3nnnn3-c3ccccc3)n2)cc1 | inactive |
| Cc1ccc2nc(-c3ccc(NC(=O)COC(=O)c4cncc(Br)c4)cc3)sc2c1 | active: 1.69 µM |
| COCCNc1ccc(-c2nc(-c3cccc(C)c3)no2)cc1[N+](=O)[O-] | inconclusive: 30.1 µM [inhibitor, partial curve, poor fit] |
| O=C1CN(c2ccccc2)C(=S)N1C(=O)c1ccccc1 | active: 23.9 µM |
